Earlier results as cited in US20120231025A1 (priority 2009, published 2012).

Test system: hematopoietic cells
Conditions: irradiated animals; U.S. Pat. No. 6,159,950, Examples 5 and 7; cited from earlier work

H-L-Ile-L-Glu-L-Trp-OH [Neogen]
Hematopoietic progenitors, spleen colony forming units (CFU-S): more hematopoietic progenitors
